According to the supplement of paper PMC12217912:
The list shows a part of the results. Sequences were assembled here from the parent chain. Values near 0.05 are background.

B1: TEV protease; numbered along this chain (parent)
chain: MGESLFKGPRDYNPISSSICHLTNESDGHTTSLYGIGFGPFIITNKHLFRRNNGTLVVQSLHGVFKVKDTTTLQQHLVDGRDMIIIRMPKDFPPFPQKLKFREPQREERICLVTTNFQTKSMSSMVSDTSCTFPSGDGIFWKHWIQTKDGQCGSPLVSTRDGFIVGIHSASNFTNTNNYFTSVPKNFMELLTNQEAQQWVSGWRLNADSVLWGGHKVFMVKPEEPFQPVKEATQL

Variants of: B1
Experiment: raw area under fraction-flipped curve 0-4 h after induction (AUC4h, not background-subtracted), DNA-recorder readout of cleavage of the substrate (dimensionless); higher = more cleavage of the substrate by the protease variant
Conditions: temperature: 34 °C; time window: 0-4 h after rhamnose induction
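Note: Bxb1 expression induced with 0.2% (w/v) L-rhamnose at OD600 near 0.5, cultures sampled hourly, flipped fraction per protease–substrate barcode pair counted by paired-end Illumina sequencing.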

Variant | area with substrate CNLYFQS | area with substrate DNLYFQS | area with substrate FNLYFQS | area with substrate GNLYFQS | area with substrate HNLYFQS | area with substrate INLYFQS | area with substrate KNLYFQS | area with substrate LNLYFQS | area with substrate MNLYFQS | area with substrate NNLYFQS | area with substrate PNLYFQS | area with substrate RNLYFQS | area with substrate SNLYFQS | area with substrate TNLYFQS | area with substrate VNLYFQS | area with substrate WNLYFQS | area with substrate QNLYFQS | area with substrate YNLYFQS
MGESLFKGPRDYNPISSSICHLTNESDGHTTSLYGIGFGPFIITNKHLFRRNNGTLVVQSLHGVFKVKDTTTLQQHLVDGRDMIIIRMPKDFPPFPQKLKFREPQREERICLVTTNFQTKSMSSMVSDTSCTFPSGDGIFWKHWIQTKDGQCGSPLVSTRDGFIVGIHSASNFTNTNNYFTSVPKNFMELLNNQEAQQWVSGWRLNADSVLWGGHKVFMVKPEEPFQPVKEATQL [T192N] | 0.0383 | 0.0752 | 0.064 | 0.0719 | 0.0679 | 0.082 | 0.0681 | 0.0655 | 0.0558 | 0.0722 | 0.064 | 0.0781 | 0.0352 | 0.0609 | 0.0692 | 0.0419 |  | 
MGESLFKGPRDYNPISSSICHLTNESDGHTTSLYGIGFGPFIITNKHLFRRNNGTLVVQSLHGVFKVKDTTTLQQHLVDGRDMIIIRMPKDFPPFPQKLKFREPQREERICLVTTNFQTKSMSSMVSDTSCTFPSGDGIFWKHWIQTKDGQCGSPLVSTRDGFIVGIHSASNFTNTNNYFTSVPKNFMELLLNQEAQQWVSGWRLNADSVLWGGHKVFMVKPEEPFQPVKEATQL [T192L] | 0.0927 |  | 0.0716 | 0.0805 | 0.0679 | 0.0605 | 0.07 | 0.0914 | 0.0608 |  |  |  | 0.103 | 0.0646 | 0.0656 | 0.0607 |  | 
MGESLFKGPRDYNPISSSICHLTNESDGHTTSLYGIGFGPFIITNKHLFRRNNGTLVVQSLHGVFKVKDTTTLQQHLVDGRDMIIIRMPKDFPPFPQKLKFREPQREERICLVTTNFQTKSMSSMVSDTSCTFPSGDGIFWKHWIQTKDGQCGSPLVSTRDGFIVGIHSASNFTNTNNYFTSVPKNFMELLKNQEAQQWVSGWRLNADSVLWGGHKVFMVKPEEPFQPVKEATQL [T192K] | 0.0558 | 0.0795 | 0.0402 | 0.0632 | 0.0639 |  |  | 0.0613 | 0.067 |  |  |  | 0.0517 | 0.0687 |  | 0.0554 |  | 
MGESLFKGPRDYNPISSSICHLTNESDGHTTSLYGIGFGPFIITNKHLFRRNNGTLVVQSLHGVFKVKDTTTLQQHLVDGRDMIIIRMPKDFPPFPQKLKFREPQREERICLVTTNFQTKSMSSMVSDTSCTFPSGDGIFWKHWIQTKDGQCGSPLVSTRDGFIVGIHSASNFTNTNNYFTSVPKNFMELLRNQEAQQWVSGWRLNADSVLWGGHKVFMVKPEEPFQPVKEATQL [T192R] | 0.0544 | 0.0947 |  | 0.06 | 0.06 | 0.0574 |  | 0.0758 |  |  |  |  | 0.0713 | 0.0578 | 0.073 | 0.0558 | 0.0644 | 0.0539
MGESLFKGPRDYNPISSSICHLTNESDGHTTSLYGIGFGPFIITNKHLFRRNNGTLVVQSLHGVFKVKDTTTLQQHLVDGRDMIIIRMPKDFPPFPQKLKFREPQREERICLVTTNFQTKSMSSMVSDTSCTFPSGDGIFWKHWIQTKDGQCGSPLVSTRDGFIVGIHSASNFTNTNNYFTSVYKNFMELLTNQEAQQWVSGWRLNADSVLWGGHKVFMVKPEEPFQPVKEATQL [P184Y] | 0.0583 |  | 0.0569 |  | 0.0439 | 0.0593 | 0.0574 | 0.0601 |  |  | 0.0404 |  | 0.0305 | 0.054 |  | 0.0638 |  | 0.0601
MGESLFKGPRDYNPISSSICHLTNESDGHTTSLYGIGFGPFIITNKHLFRRNNGTLVVQSLHGVFKVKDTTTLQQHLVDGRDMIIIRMPKDFPPFPQKLKFREPQREERICLVTTNFQTKSMSSMVSDTSCTFPSGDGIFWKHWIQTKDGQCGSPLVSTRDGFIVGIHSASNFTNTNNYFTSVRKNFMELLTNQEAQQWVSGWRLNADSVLWGGHKVFMVKPEEPFQPVKEATQL [P184R] | 0.0544 |  |  |  | 0.0375 | 0.0494 |  |  |  | 0.0603 | 0.0536 |  |  | 0.058 |  |  | 0.0895 | 0.0429
MGESLFKGPRDYNPISSSICHLTNESDGHTTSLYGIGFGPFIITNKHLFRRNNGTLVVQSLHGVFKVKDTTTLQQHLVDGRDMIIIRMPKDFPPFPQKLKFREPQREERICLVTTNFQTKSMSSMVSDTSCTFPSGDGIFWKHWIQTKDGQCGSPLVSTRDGFIVGIHSASNFTNTNNYFTSVEKNFMELLTNQEAQQWVSGWRLNADSVLWGGHKVFMVKPEEPFQPVKEATQL [P184E] | 0.0635 |  | 0.0384 | 0.0429 | 0.054 |  |  | 0.0702 | 0.0562 | 0.0565 | 0.0579 |  | 0.0612 | 0.0862 |  | 0.0526 |  | 
MGESLFKGPRDYNPISSSICHLTNESDGHTTSLYGIGFGPFIITNKHLFRRNNGTLVVQSLHGVFKVKDTTTLQQHLVDGRDMIIIRMPKDFPPFPQKLKFREPQREERICLVTTNFQTKSMSSMVSDTSCTFPSGDGIFWKHWIQTKDGQCGSPLVSTRDGFIVGIHSASNFTNTNNYFTSVQKNFMELLTNQEAQQWVSGWRLNADSVLWGGHKVFMVKPEEPFQPVKEATQL [P184Q] | 0.0559 | 0.0646 |  |  |  |  | 0.0561 | 0.0653 | 0.0577 |  | 0.052 | 0.0477 | 0.0649 | 0.0579 |  | 0.0601 | 0.0573 | 
MGESLFKGPRDYNPISSSICHLTNESDGHTTSLYGIGFGPFIITNKHLFRRNNGTLVVQSLHGVFKVKDTTTLQQHLVDGRDMIIIRMPKDFPPFPQKLKFREPQREERICLVTTNFQTKSMSSMVSDTSCTFPSGDGIFWKHWIQTKDGQCGSPLVSTRDGFIVGIHSASNFTNTNNYFTSVKKNFMELLTNQEAQQWVSGWRLNADSVLWGGHKVFMVKPEEPFQPVKEATQL [P184K] | 0.0597 | 0.0669 | 0.0594 | 0.0617 | 0.0701 |  |  |  | 0.0587 | 0.0674 | 0.0567 |  |  | 0.0659 |  |  |  | 0.0496
MGESLFKGPRDYNPISSSICHLTNESDGHTTSLYGIGFGPFIITNKHLFRRNNGTLVVQSLHGVFKVKDTTTLQQHLVDGRDMIIIRMPKDFPPFPQKLKFREPQREERICLVTTNFQTKSMSSMVSDTSCTFPSGDGIFWKHWIQTKDGQCGSPLVSTRDGFIVGIHSASNFTNTNNYFTSVPKNFMELCTNQEAQQWVSGWRLNADSVLWGGHKVFMVKPEEPFQPVKEATQL [L191C] | 0.0559 | 0.0679 |  | 0.0457 | 0.0667 | 0.0667 | 0.0682 |  | 0.101 | 0.0715 | 0.0528 |  |  | 0.0611 |  | 0.0509 | 0.0827 | 0.0551
